Drawing on publication PMC10726135, this text covers binding signal (log2 normalized intensity) for 72 sequences.

Some of the results follow. At the low end of the ranking the order means little. Measured with an extract: partners may take part in the binding.

In the assay the target is T1, HNF4alpha2 (COS-7 nuclear extract) (UniProt P41235).
T1 sequence: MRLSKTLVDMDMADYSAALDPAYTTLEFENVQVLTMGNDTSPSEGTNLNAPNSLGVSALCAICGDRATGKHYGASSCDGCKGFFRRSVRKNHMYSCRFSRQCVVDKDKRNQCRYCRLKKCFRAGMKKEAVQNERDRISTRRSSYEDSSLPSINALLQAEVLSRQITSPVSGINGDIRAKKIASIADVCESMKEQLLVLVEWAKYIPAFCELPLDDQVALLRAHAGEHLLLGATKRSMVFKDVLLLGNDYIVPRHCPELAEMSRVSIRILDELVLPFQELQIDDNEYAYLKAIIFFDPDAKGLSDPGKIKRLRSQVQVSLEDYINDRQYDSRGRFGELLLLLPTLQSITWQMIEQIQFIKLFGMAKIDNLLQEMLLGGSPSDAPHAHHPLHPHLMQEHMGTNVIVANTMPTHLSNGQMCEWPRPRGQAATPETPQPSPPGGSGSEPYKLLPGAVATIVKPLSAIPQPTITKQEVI
Put plainly: protein-binding microarray. The conditions noted are these: COS-7 nuclear extract on double-stranded Agilent 4x180k PBM; binding buffer, salt, pH and temperature not given; high values mean tight binding; double strand, one strand shown; sequences stand for … in …GCCTAGGGAGATTAGAGTATCGGTCGA
Consider TGCCTCTTTTCTGCTTTTGGAATTTGACCT, for which the binding signal (log2 normalized intensity) is 7.84.

With GGGCTGGAACACAAAGAAAGCCAAAGTTCA, the binding signal (log2 normalized intensity) stood at 2.41.

For the sequence GGATAGCGCGTGGCCCAAGGCCTCTGACAT, the binding signal (log2 normalized intensity) was -0.993.

GGTGGGAAAAGAAATGTAGTGACAGAAGGG: the binding signal (log2 normalized intensity) was -1.09.

With CCCACACCTCCCCTTTGTTTAACTTACTAT, the binding signal (log2 normalized intensity) turned out to be 1.47.

For the sequence GTGACATACTGCCTTTCTAGAACCAGAATT, the binding signal (log2 normalized intensity) was 0.287.

GTCGCTGTGATGTTTGTAAACTGTCATGGT: the binding signal (log2 normalized intensity) was 1.34.

Take ACAGTGCCTATGTTGGAATGCCTAAAGTAG: the binding signal (log2 normalized intensity) is -1.11.

Turning to ATTGAGGCAGCCAGCGCAGGGGCTTCTGCT, the binding signal (log2 normalized intensity) was -1.08.

Regarding TGAGTAGTGTACGTTGTACCCCACAGGTAT, the binding signal (log2 normalized intensity) was determined as 2.94.

Regarding CAACCTTATCAGCAGGACACCAAACAGACC, the binding signal (log2 normalized intensity) was -1.05.

As for TGCAGAGTCACACACACCTGTGTCCCCCAG, the binding signal (log2 normalized intensity) was 2.97.

In the case of TTAATTTCTAACCAATGCAGCTGGGAGATA, the binding signal (log2 normalized intensity) amounted to 0.442.

Take ATTAAGTGCAGTGATCAATCAGCAGCAAAG: the binding signal (log2 normalized intensity) is -0.645.

GTCTTTTCTCCCCCGATAAGGCTGCCTCCT: the binding signal (log2 normalized intensity) worked out at 3.41.

For CCTCCAGCTACTCACTCTTCCCAAATAGGT, the binding signal (log2 normalized intensity) is -0.0383.

For TACACTTGGAGAAAAAAAACCATTGCAAAT, the binding signal (log2 normalized intensity) is -1.09.

Take GTGTGACCTTTGCCTTCTTGACATCTCTCT: the binding signal (log2 normalized intensity) stood at 4.43.

In the case of AAACTACTTTATATTCCTTTGTATCTGTAC, the binding signal (log2 normalized intensity) was determined as 1.63.

Regarding GTCAGACTTGCCACGGAATCCCAGTTCTGA, the binding signal (log2 normalized intensity) was -1.13.

Regarding AACCTTTGCTCCCTGGGAACCCCTCCAGCA, the binding signal (log2 normalized intensity) amounted to 4.03.

GTGGGCAAGTTATCTCGGGGTGGCATGTAT: the binding signal (log2 normalized intensity) came out at 1.14.

Regarding AGTGATATGGAGAGGAAAGATGGGGATATA, the binding signal (log2 normalized intensity) is -1.08.

As for CAACCTCCACATTGCAACAATGTCCTTGAA, the binding signal (log2 normalized intensity) was determined as 0.915.

On to ATCTCTGGCAAAGCTATTCACTTTTTGGCC, for which the binding signal (log2 normalized intensity) was 0.468.

In the case of GTTATCTGCATTCCAGCTCAATCAAGGACT, the binding signal (log2 normalized intensity) was -1.1.

For the sequence TTCTTATTCTGTCACCAAAGCAAGCAGATG, the binding signal (log2 normalized intensity) was -1.13.

For TTGCACCAAGGAGACACCCCTGCAGAAGCG, the binding signal (log2 normalized intensity) is -1.13.

Regarding CGCAGACCCAGTCTTAGGGACTAAGCTTGT, the binding signal (log2 normalized intensity) was -1.08.

Turning to GAGTTATCTCTTGACTCTTCCCATCTAACT, the binding signal (log2 normalized intensity) was -0.909.

For the sequence GGACATTGGCTGATAAAACAAATCTACAAA, the binding signal (log2 normalized intensity) was -1.06.

In the case of GCAATGTGGACTTTGTCCTGTGGGCTGTAA, the binding signal (log2 normalized intensity) is 7.35.

Take ATTGTACAGGTTCCCTCATGATTTAGTAAG: the binding signal (log2 normalized intensity) came out at 0.637.

With AACCTAGACAGAAGCTTTCTGAGAAACTTC, the binding signal (log2 normalized intensity) is -1.18.

Take CAGGGTCTAGCAGTGCAGCGGGGTCAGAGA: the binding signal (log2 normalized intensity) worked out at 1.8.

GCATGGTGATGCTAGCTACTACATGATGCT: the binding signal (log2 normalized intensity) was -1.1.

Regarding TCCTTGTCTGTTTGGCCTTAGGTCCTTTGA, the binding signal (log2 normalized intensity) is 2.04.

With CCAACAGTTGAGAATTCCAGAGATGCCAGG, the binding signal (log2 normalized intensity) was -1.15.

For the sequence TTGATGAGTCTTAGAGTCCAGACACAAAGA, the binding signal (log2 normalized intensity) was -0.0998.

For ATTCCTCTATCTCCCTGTGACCTCCAACTA, the binding signal (log2 normalized intensity) stood at 2.58.

With ATTAACCTTTGTACCAAAATCACACTGGGA, the binding signal (log2 normalized intensity) worked out at 3.16.

Consider GAATTCTTGACTTTGGACTTTCAAAAGTTA, for which the binding signal (log2 normalized intensity) stood at 4.21.

For CTTTGGTAGGCTGTATGGCTGCACAGGGCT, the binding signal (log2 normalized intensity) is -0.75.

Take ACCCAATACCCAGAGTGATCTTTGAAACAT: the binding signal (log2 normalized intensity) is 2.67.

For the sequence GTCTTAGGGACTAAGCTTGTAGACCAAGGA, the binding signal (log2 normalized intensity) came out at 0.172.

TTGAGTCCTTCATGGCTACCCTTCATCTTC: the binding signal (log2 normalized intensity) is 0.919.

TGTTTGCGCAAACTATCTAAACAGACTAGT: the binding signal (log2 normalized intensity) was -0.653.

As to CTGCCCTTTGGAACCTGCCCTCTGTCCCAT, the binding signal (log2 normalized intensity) was 4.15.

As to ATACATTTGCCTGAACTTTAAACTGGTGTG, the binding signal (log2 normalized intensity) was 2.63.

For the sequence AGATACTGAATCTCCCAGTGCTTTGATCTT, the binding signal (log2 normalized intensity) was determined as 1.07.

For the sequence TGGGCTGGGACTCATTTATGGAGGAATTTG, the binding signal (log2 normalized intensity) was determined as 0.0464.

On to ACAAAGATCATAAATGCCTCCCCCTCTTTA, for which the binding signal (log2 normalized intensity) was 3.82.

With TGGGAACCCCAAGTTATCTTGAGACCTCAA, the binding signal (log2 normalized intensity) is -0.202.

Take TTTTGTACTTCCTTCACTCTGGGGCAATAA: the binding signal (log2 normalized intensity) stood at 1.89.

Consider AACATATACTTTATTAGGGTGAAAAATTAG, for which the binding signal (log2 normalized intensity) stood at 0.91.

Take TAAGACAGACCCAAAGGTTAAGGAAACAAG: the binding signal (log2 normalized intensity) is -1.01.

Regarding CAGATCCAGTGGACTCTCTGTTTGATCAGC, the binding signal (log2 normalized intensity) was determined as 1.51.

Consider AAGTCCATCTGTATTGCCTCCTTTGTAGGC, for which the binding signal (log2 normalized intensity) was 0.626.

As for GGGGAGAGTTTAAGGTTGTACTTTGGAGTT, the binding signal (log2 normalized intensity) came to 4.78.

TGATAAACACTTGCCTACTTTATGGTAAAC: the binding signal (log2 normalized intensity) is -1.08.

As to TAATTAAGACCAAACTGCTGAAGATAAGAC, the binding signal (log2 normalized intensity) is -1.09.

For CTGTTTGAGGGTAAAGATCTTGAGGCCCAC, the binding signal (log2 normalized intensity) is -0.0312.

TTCTGGGGACTTCGGTCTTTTTTCTGAAGA: the binding signal (log2 normalized intensity) turned out to be 1.62.

Consider GATGTTCGTTTGGATCGCTTGGCTCAGGCC, for which the binding signal (log2 normalized intensity) is -0.819.

On to GGAAGGAAAAGAGGAAAACCAGCTCAGTGG, for which the binding signal (log2 normalized intensity) was -1.13.

With GGAGCAGAGCGATCAAAGGTCACAGAGACC, the binding signal (log2 normalized intensity) came to 5.35.

Take GAATGCCTAAAGTAGGTCTTAAATAATTAA: the binding signal (log2 normalized intensity) was -0.924.

Regarding CAAATACCTCCAAGAGGTTTTAGGCTATCA, the binding signal (log2 normalized intensity) was -1.1.

GCGAAGGCAGTGTGGCACCCTCCCTTCCCG: the binding signal (log2 normalized intensity) was found to be 2.29.

On to TCCAGGAGTATGTGTTTGCTTTACCTTAGT, for which the binding signal (log2 normalized intensity) turned out to be 1.66.

TGAGTCTGGTGTTTCCCTGTTTGCTTCTGC: the binding signal (log2 normalized intensity) turned out to be 0.819.

As to CTACCTCTTAGCTACCCTGTTTACAATGGA, the binding signal (log2 normalized intensity) turned out to be 1.06.
